Source: PubChem BioAssay AID504845 (National Center for Advancing Translational Sciences (NCATS), 2011)
Where “and” joins values, the source holds several entries; their conditions need not be identical. Equal values may be shown once. Among all 390,000 compounds or so, about 150 (0.038%) were called active. The inconclusive results got no clear call from the source; some entries with a clear call stand among them for comparison. The call rests on the fitted dose curve; in most records, active means well fitted inhibition curve with a large enough effect; inconclusive means small, poorly fitted or top-dose-only effect; inactive means no such curve, though single readings can be large or run the other way. Where the call is inconclusive, the potency comes from a doubtful curve fit.
Further: nearly all actives have a fitted effect of over 75% in size.
Potency means the concentration at half of the fitted maximal effect; tags describe the fitted curve by direction and shape.

These compounds were tested against Regulator of G-protein signaling 4 (Homo sapiens) (UniProt P49798) (assay: Inhibitors of Regulator of G Protein Signaling (RGS) 4: qHTS). Conditions: Transcreener GDP fluorescence polarization, RGS4-accelerated GTP hydrolysis; series mostly up to 114 µM.
Sequence of UniProt P49798 (P49798 whole entry, looked up): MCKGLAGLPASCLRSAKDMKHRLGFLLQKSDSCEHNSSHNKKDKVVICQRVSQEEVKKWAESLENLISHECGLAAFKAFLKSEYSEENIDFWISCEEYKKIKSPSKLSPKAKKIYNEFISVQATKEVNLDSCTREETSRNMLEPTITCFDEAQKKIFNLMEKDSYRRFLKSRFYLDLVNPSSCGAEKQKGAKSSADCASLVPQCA
Method in brief: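 MLSMR compounds (23 nl, pin-transferred) preincubated 10 min at room temperature with a 500nM (2x) first reagent, then RGS4 at 900nM (2x) plus Transcreener GDP mix added; fluorescence polarization (620/688 nm) read before and after 90 min at 30 °C.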
With COc1ccc(-c2nnc(SCC(=O)c3ccco3)n2-c2ccccc2)cc1 the Potency was inconclusive: 100 µM [inhibitor, single point].
In the case of Cc1ccc(Cn2nc(C)cc2C(=O)Nc2ccccc2Cl)cc1, the Potency is reported as “inactive”.
In the case of COc1ccc(CCNC(=O)c2ccc(-c3ccc([N+](=O)[O-])cc3)o2)cc1OC, the Potency is reported as inconclusive: 50.1 µM [inhibitor, partial curve, poor fit].
In the case of CC(=O)NCCN=C(C)c1sc2ccccc2c1O, the Potency is reported as inconclusive: 50.1 µM [inhibitor, partial curve, poor fit].
CCOC(=O)c1cc([N+](=O)[O-])cc([N+](=O)[O-])c1Sc1ncnc2nc[nH]c12 was tested, and the Potency was inconclusive: 56.2 µM [inhibitor, partial curve, poor fit].
With CC(C)(C)Cc1nnc(NC(=O)CSc2ccccc2)s1 the Potency was inconclusive: 50.1 µM [inhibitor, partial curve, poor fit].
In the case of COc1ccc(-n2nc(C(=O)NCC(=O)NCc3ccc(F)cc3)c3ccccc3c2=O)cc1OC, the Potency is reported as inconclusive: 17.8 µM [inhibitor, full curve, poor fit].
In the case of CCOC(=O)N1CCN(C(=O)CN(c2ccc(OCc3ccccc3)cc2)S(C)(=O)=O)CC1, the Potency is reported as “inactive”.
With N=C(N)SCCc1cccc(CCSC(=N)N)c1 the Potency was “inactive”.
For COc1ncnc2c1NC1=C(S2)C(=NCCC(=O)O)CC(C)(C)C1, the Potency was “inactive”.
In the case of CC(O)CNc1nc2sc3c(c2c(=O)n1CCc1ccccc1)CCCCC3 (configuration not stated), the Potency is reported as “inactive”.
For COC(=O)Nc1ncc(CN2CCC(c3ccccc3)CC2)s1, the Potency was “inactive”.
For O=C(/C=C/c1cccc([N+](=O)[O-])c1)Nc1cccc(NC(=O)c2ccco2)c1, the Potency was inconclusive: 100 µM [inhibitor, single point].
CCOC(=O)c1c(-c2ccccc2)cn2ccccc12 was tested, and the Potency was inconclusive: 100 µM [inhibitor, single point].
For CCn1c(CCCOc2ccc(Cl)cc2Cl)n[nH]c1=S, the Potency was inconclusive: 56.2 µM [inhibitor, partial curve, poor fit].
For Cc1c(Br)c([N+](=O)[O-])nn1CCCC(=O)N1CCN(c2ccccc2)CC1, the Potency was “inactive”.
CCCCC(=O)Nc1ccc(NC(=O)c2cc(OC)c(OC)c(OC)c2)cn1 was tested, and the Potency was “inactive”.
CCOc1ccc(N2CC(NC(=O)c3ccco3)CC2=O)cc1 (configuration not stated) was tested, and the Potency was “inactive”.
O=C(Cn1c2ccccc2c(=O)c2cc([N+](=O)[O-])ccc21)Nc1ccccc1Cl was tested, and the Potency was inconclusive: 35.5 µM [inhibitor, partial curve, poor fit].
In the case of O=c1cc(-c2ccc(O)cc2)oc2cc(O)cc(O)c12, the Potency is reported as “inactive and inconclusive: 16.8 µM [inhibitor, single point]”.
In the case of CCOC(=O)c1cccc(NC(=O)Cn2cc3c(n2)CCC(C)C3)c1 (configuration not stated), the Potency is reported as inconclusive: 50.1 µM [inhibitor, partial curve, poor fit].
For CC1CCN(c2nn3c(=O)c(C(=O)NCCCOC(C)C)cnc3s2)CC1, the Potency was “inactive”.
For COc1ccc(-c2nn3c(C4CCCCC4)nnc3s2)cc1OC, the Potency was inconclusive: 50.1 µM [inhibitor, partial curve, poor fit].
For O=C(CN1CCC(n2nnc3cc(F)ccc32)CC1)NCc1ccco1, the Potency was “inactive”.
In the case of Clc1ccccc1C1=Nn2c(nnc2-c2ccncc2)SC1, the Potency is reported as inconclusive: 89.1 µM [inhibitor, single point].
For CC(=O)Oc1ccc(N2C(=O)C3C4C=CC(O4)C3C2=O)cc1 (configuration not stated), the Potency was inconclusive: 35.5 µM [inhibitor, full curve, poor fit].
For CCCCCOc1ccc(/C=C/C(=O)Nc2sc(C)c(C)c2C(=O)OCC)cc1OC, the Potency was inconclusive: 89.1 µM [inhibitor, partial curve, poor fit].
Cc1nn(-c2ccccc2)c2c1C(c1ccc(O)c(O)c1)N1C(=N2)C(Nc2ccccc2)=Nc2ccccc21 (configuration not stated) was tested, and the Potency was “inactive”.
For COc1ccc(C2=NN(C(=O)CSc3nc(=O)n4cccc(C)c4n3)C(c3ccc(C)cc3)C2)cc1 (configuration not stated), the Potency was inconclusive: 89.1 µM [inhibitor, partial curve, poor fit].
In the case of CCC(NC(=O)c1ccc([N+](=O)[O-])cc1[N+](=O)[O-])c1ccccc1 (configuration not stated), the Potency is reported as “inactive”.
For CCc1ccc(-n2c(SCc3c(C)noc3C)nnc2-c2ccncc2)cc1, the Potency was “inactive”.
In the case of O=C(COC(=O)c1cccc(S(=O)(=O)NCc2ccccc2)c1)c1ccccc1, the Potency is reported as inconclusive: 79.4 µM [inhibitor, single point].
Nc1c(S(=O)(=O)O)cc(NC(=O)c2ccccc2)c2c1C(=O)c1ccccc1C2=O was tested, and the Potency was inconclusive: 39.8 µM [inhibitor, partial curve, poor fit].
In the case of Cc1cc(C)cc(N(C(=O)CNC(=O)c2ccco2)C(C(=O)NC2CCCC2)c2cccnc2)c1 (configuration not stated), the Potency is reported as “inactive”.
For Cc1ccc(-c2csc(-c3nc(-c4ccc(Br)s4)cs3)n2)cc1, the Potency was “inactive”.
CCOC(=O)Cc1cnc(NC(=O)CSc2nc(N)cc(=O)[nH]2)s1 was tested, and the Potency was inconclusive: 39.8 µM [inhibitor, partial curve, poor fit].
CC(=O)Oc1ccc(N2C(=O)C3C(C2=O)C(C(=O)c2ccc(Cl)cc2)N2CCCC32)cc1 (configuration not stated) was tested, and the Potency was inconclusive: 70.8 µM [inhibitor, partial curve, poor fit].
With Cc1cc(C)c(S(=O)(=O)c2ccccc2)c(OC(=O)c2c(F)cccc2F)n1 the Potency was inconclusive: 56.2 µM [inhibitor, partial curve, poor fit].
In the case of O=C(NC1CC1)c1ccc2nc(-c3ccco3)c(-c3ccco3)nc2c1, the Potency is reported as inconclusive: 28.2 µM [inhibitor, full curve, poor fit].
Cc1ccccc1Oc1nc2c(C)cccn2c(=O)c1/C=C(\C#N)C(=O)NC1CCS(=O)(=O)C1 (configuration not stated) was tested, and the Potency was inconclusive: 35.5 µM [inhibitor, full curve, poor fit].
For Cc1cc(Cl)ccc1N=c1ssnc1Cl, the Potency was inconclusive: 20 µM [inhibitor, full curve, poor fit].
In the case of COc1ccc(OC)c(CCNC(=O)c2cc3c(s2)-c2c(C)cccc2OC3)c1, the Potency is reported as inconclusive: 28.2 µM [inhibitor, full curve, poor fit].
